Measured values published in PubChem BioAssay AID360 (National Center for Advancing Translational Sciences (NCATS), 2006).
About 550 (1.1%) of roughly 48,000 compounds were called active. Roughly 4% stayed inconclusive and do not appear here. No stated cut-off is given here; in the data, active means potency below about 15 µM; inconclusive means mostly about 16 µM to 33 µM; inactive means weaker than that. The list shows a part of the results.

Target: Lysosomal acid glucosylceramidase (Homo sapiens) (UniProt P04062)
Sequence of UniProt P04062 (P04062 whole entry, looked up): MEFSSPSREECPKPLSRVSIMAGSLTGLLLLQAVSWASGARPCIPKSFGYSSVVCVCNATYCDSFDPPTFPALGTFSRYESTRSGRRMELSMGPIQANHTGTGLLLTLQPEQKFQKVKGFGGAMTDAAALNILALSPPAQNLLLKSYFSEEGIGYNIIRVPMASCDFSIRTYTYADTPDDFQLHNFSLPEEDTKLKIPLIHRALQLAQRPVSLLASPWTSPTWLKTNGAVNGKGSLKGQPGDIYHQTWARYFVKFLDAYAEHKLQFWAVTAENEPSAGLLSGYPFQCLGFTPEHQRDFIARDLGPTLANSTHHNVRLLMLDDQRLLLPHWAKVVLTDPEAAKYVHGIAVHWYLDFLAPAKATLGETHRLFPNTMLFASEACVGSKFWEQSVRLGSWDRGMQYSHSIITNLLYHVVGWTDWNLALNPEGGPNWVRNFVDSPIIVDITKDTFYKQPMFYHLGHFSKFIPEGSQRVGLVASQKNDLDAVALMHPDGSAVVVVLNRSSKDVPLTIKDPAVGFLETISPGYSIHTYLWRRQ
Assay: Glucocerebrosidase;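 further: the screen sought inhibitors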
Conditions: purified enzyme, resorufin glucoside fluorescence (screen aimed at inhibitors), 20 min
Outline: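 Normal human glucocerebrosidase (0.2 nM final) was assayed with resorufin β-D-glucopyranoside (30 uM final) in 50mM citric acid/KH2PO4, 10mM sodium taurocholate, 0.01% tween-20, pH 5.9. Compounds were titrated; fluorescence (Ex 548, Em 600) read after 20 min at RT.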
Potency means the concentration at half of the fitted maximal effect.

Potency, inactive:
CCc1ccccc1NC(=O)CC(O)(C(=O)OC)C(F)(F)F (centres undefined) > 76.9 µM
O=C(O)Cn1c(SC2CCCCC2)nc2ccccc21 > 76.9 µM
CS(=O)(=O)N(CC(=O)NCCC1=CCCCC1)c1ccc2c(c1)OCO2 > 76.9 µM
COc1ccc(NC(=O)C2CCCN(S(=O)(=O)c3cccc4nonc34)C2)c(OC)c1 (centres undefined) > 76.9 µM
C=CCn1c(SCc2nc3ccccc3c(=O)[nH]2)nnc1-c1cc2cc(Cl)ccc2o1 > 76.9 µM
O=C(Nc1ccc(F)cc1)N1CCN(c2nc3ccccc3s2)CC1 > 76.9 µM
O=C(CNCC1CCCO1)Nc1ccc(N2CCCCCC2)cc1 (centres undefined)
Cc1sc2ncn(CCC(=O)O)c(=O)c2c1C > 76.9 µM
O=C(O)C1C2C=CC(O2)C1C(=O)NCc1ccc(Cl)cc1 (centres undefined) > 76.9 µM
Cc1cccc(/N=C/c2c(O)cc(C)oc2=O)n1 > 76.9 µM
Cn1ccnc1SCc1cn2ccccc2n1 > 76.9 µM
Cc1nc(Cl)sc1C(=O)O > 76.9 µM
CCOC(=O)C1CCCN(C2CC(=O)N(c3cccc(C)c3)C2=O)C1 (centres undefined) > 76.9 µM
O=C(Nc1nc(-c2ccc3c(c2)OCCO3)cs1)c1ccc(S(=O)(=O)N2CCCCC2)cc1 > 76.9 µM
COc1ccc(CCNC(=O)c2cc(-c3ccccc3)on2)cc1OC > 76.9 µM
COc1cccc(-c2csc(N3CCN(C(=O)C4CCCCC4)CC3)n2)c1 > 76.9 µM
C/C(Cl)=C/Cn1c(SCc2ccc(Cl)cc2)nc2c1c(=O)[nH]c(=O)n2C > 76.9 µM
CCN=C1SC(C(=O)NCCc2ccccc2)CC(=O)N1CC (centres undefined) > 76.9 µM
CCOc1ccccc1Nc1nnc(SCC(=O)N2CCCC2)s1 > 76.9 µM
COc1ccc(C(=O)c2ccc(OC)c(OC)c2)cc1OC > 76.9 µM
CC(=O)Nc1ccc(S(=O)(=O)N(C)c2ccc(O)cc2)cc1 > 76.9 µM
O=S(=O)(NCc1cn2ccccc2n1)c1cc(F)ccc1F > 76.9 µM
CCc1nnc(NC(=O)CSc2nnc(COc3ccccc3C)o2)s1
O=S(=O)(c1ccc2c(c1)C(=NO)c1cc(S(=O)(=O)N3CCCCC3)ccc1-2)N1CCCCC1
CC1=C(C(N)=O)C(c2cccc(OCc3ccccc3)c2)n2nnnc2N1 (centres undefined) > 76.9 µM
CCOC(=O)C1=C(C)Nc2nc(SC)nn2C1c1ccc(C(=O)OC)cc1 (centres undefined) > 76.9 µM
Cn1cnnc1SCc1ccc(C#N)cc1 > 76.9 µM
OCC1OC(n2nc3ccccc3n2)C(O)C(O)C1O (centres undefined) > 76.9 µM
CCCc1cc(C(N)=S)ccn1 > 76.9 µM
NC(=O)CSc1nc(O)cc(=O)n1-c1ccccc1 > 76.9 µM
Cc1cccc(-c2nnc(-c3ccc(N)cc3)o2)c1 > 76.9 µM
Cc1ccc(C2CC(=O)c3cnc(N4CCN(c5ccccc5)CC4)nc3C2)cc1 (centres undefined) > 76.9 µM
O=C(COC(=O)c1cnccn1)Nc1ccc2c(c1)OCO2 > 76.9 µM
c1ccc(-c2nc(NCc3ccco3)c3ccccc3n2)nc1 > 76.9 µM
N=C1C(c2nc3ccccc3[nH]2)=C(O)CN1c1ccccc1 > 15.4 µM
CN(C#N)c1nc(N2CCOCC2)nc(N2CCOCC2)n1 > 76.9 µM
CCS(=O)(=O)N1CCC(NC(C)=O)(c2ccccc2)CC1 > 76.9 µM
CCNC(=O)C1CCCN1S(=O)(=O)c1ccc(OC)cc1 (centres undefined) > 76.9 µM
O=C(C1CCC(=O)N1C1CCCCC1)N1CCN(c2ccc(F)cc2)CC1 (centres undefined) > 76.9 µM
COC(=O)c1cc(NC(=O)CSc2nc(C)cc(=O)[nH]2)cc(C(=O)OC)c1 > 76.9 µM
CC(OC(=O)c1cccs1)C(=O)NCC1CCCO1 (centres undefined) > 76.9 µM
CCOC(=O)c1c(NC(=O)OC)sc2c1CCC2 > 76.9 µM
CCOC(=O)c1ccc(NC(=O)CSc2nnc(-c3cccs3)n2C)cc1 > 76.9 µM
Clc1ccc(-n2nnnc2-c2ccccc2)cc1 > 76.9 µM
CN(c1ccccc1C(=O)O)S(C)(=O)=O > 76.9 µM
CCN(C(=O)CN1CCN(c2ccccc2)CC1)c1c(N)n(Cc2ccccc2)c(=O)[nH]c1=O > 76.9 µM
COc1cc(C(=O)Nc2nc3ccc(S(=O)(=O)N4CCOCC4)cc3s2)cc(OC)c1OC > 76.9 µM
O=C(Nc1nccs1)C1CCN(S(=O)(=O)c2ccc3c(c2)OCCCO3)CC1 > 76.9 µM
COc1ccc(C(CNC(=O)c2ccc3c(c2)C(=O)N(CCC(C)C)C3=O)N2CCOCC2)cc1 (centres undefined)
O=C(NCCN1CCOCC1)N1CCOCC1 > 76.9 µM
CN(C)C(=O)Cn1c(SCC(=O)N2CCCc3ccccc32)nc2ccccc21 > 76.9 µM
O=C(NCc1cccs1)C1CC(c2ccccc2O)=NO1 (centres undefined) > 76.9 µM
CCCCc1nc2n[nH]c(N)c2c2c1CCC2 > 76.9 µM
O=C(CNC(=O)Cn1ccc2ccccc2c1=O)NCCCN1CCCCCC1 > 76.9 µM
O=C(CCC1N=C2c3ccccc3N=C(SCc3cccc(Cl)c3)N2C1=O)NCc1ccco1 (centres undefined) > 76.9 µM
CCOC(=O)N1CCC(N(CCCOC)C(=O)Nc2cccc(OC)c2)CC1 > 76.9 µM
Cc1cccc(NCC(O)Cn2cnc3c2c(=O)n(C)c(=O)n3C)c1 (centres undefined) > 76.9 µM
O=c1c(Cc2ccccc2)c(O)nc2n1CCS2 > 76.9 µM
CC(C)c1ccc(-c2nc(N3CCCC3)nc3n[nH]c(N)c23)cc1 > 76.9 µM
CC(C)(C)n1nnnc1C(c1ccc2ncccc2c1)N1CCSCC1 (centres undefined) > 76.9 µM
CN(Cc1cccs1)c1ncnc2sccc12 > 76.9 µM
CCNC(=O)CC1SC(=Nc2cccc(Cl)c2C)N(C)C1=O (centres undefined) > 76.9 µM
Cc1[nH]c(=O)[nH]c(=O)c1S(=O)(=O)N(C)Cc1ccccc1 > 76.9 µM
COc1ccccc1CNC(=O)c1ccc(CS(=O)(=O)c2ccccc2OC)o1 > 76.9 µM
OC1CCCCC1Sc1nc2ccccc2s1 (centres undefined) > 76.9 µM
COc1ccccc1Nc1nc(N)nc(CSc2ncccn2)n1 > 76.9 µM
O=C1NCN(c2ccccc2)C12CCN(c1nnnn1-c1ccccc1)CC2 > 76.9 µM
Cc1nc2ncnn2c(C)c1CCC(=O)N1CCc2ccccc21 > 76.9 µM
COc1cccc(NC(=O)N2CCN(Cc3nc4ccccc4c(=O)[nH]3)CC2)c1 > 76.9 µM
CCn1c(SCc2ccc(OC)cc2)nnc1-c1ccncc1 > 76.9 µM
CNc1ccccc1-n1ccc(-c2ccccc2)n1 > 76.9 µM
Cc1cc(O)c(C(C)C)cc1NC(=O)Cn1nc(C)c2ccccc2c1=O > 76.9 µM
O=C(NCc1ccccc1)c1n[nH]nc1-c1ccccc1O > 76.9 µM
O=C(CSc1ncccn1)NC(=O)NCc1ccccc1 > 76.9 µM
CCn1c(COc2ccccc2C)nnc1SCC(=O)NCc1ccccc1 > 76.9 µM
O=C(COC(=O)c1ccc(N2CCCC2=O)cc1)NCc1ccco1 > 76.9 µM
O=C1NCCCC2c3cc(O)c4ccccc4c3OC12N1CCCCC1 (centres undefined) > 76.9 µM
COc1ccc(N2CCN(Cc3cc(=O)oc4cc(-c5ccccc5)c(O)cc34)CC2)cc1 > 76.9 µM
Clc1ccc(CSc2nnc(Cn3cnc4ccccc43)o2)cc1 > 76.9 µM
CCNC(=O)CC1C(=O)N(c2cccc(OC)c2)C(=O)N1CCOC (centres undefined) > 76.9 µM
COC(=O)C1=C(C)OC(N)=C(C#N)C1c1cc(OC)ccc1OC (centres undefined) > 76.9 µM
COC(=O)c1cn(-c2ccccc2)nc1C(=O)OC > 76.9 µM
O=C1SC(c2ccccc2)=N/C1=C/c1ccco1 > 76.9 µM
Cc1ccc(C(C)C)c(OCc2ccc(-c3nnco3)cc2)c1 > 76.9 µM
CCOC(=O)C1=C(C)OC(N)=C(C#N)C1c1cc(OC)c2c(c1)OCO2 (centres undefined) > 76.9 µM
O=C(O)C1CCCN1C(=O)c1cccs1 (centres undefined) > 76.9 µM
Cn1c(=O)c(C(=S)NC(=O)C2CC2)c(N)n(Cc2ccccc2)c1=O > 76.9 µM
COC(=O)c1sc(NC(=O)c2cc3c(s2)CCCC3)nc1C > 76.9 µM
Cc1ccn2cc(C(=O)Nc3nnc(C)s3)nc2c1 > 76.9 µM
Cn1c(SCC(=O)NCc2ccc(F)cc2)nc2ccccc21 > 76.9 µM
C=CCNC(=O)CN(c1ccc(F)c(Cl)c1)S(C)(=O)=O > 76.9 µM
CCOC(=O)CCN(Cc1cccs1)S(=O)(=O)c1ccc(Cl)cc1 > 76.9 µM
O=C1c2ccccc2C(=O)N1CCn1c(=O)oc2ccccc21 > 76.9 µM

Potency, active:
CCOC(=O)c1ccc(-n2c(=S)sc3c(=O)[nH]c(C)nc32)cc1 6.79 µM
